Experiments:
[1] = molecular target: Deglycosylated IgA (dg-IgA) (human) (UniProt P01876); experiment: BLI, dg-IgA on Protein L tips
Total IgA = experiment: cell-based or functional assay
[2] = molecular target: Deglycosylated IgA (dg-IgA) (human) (UniProt P01876); experiment: cell-based or functional assay
[3] = molecular target: ASGPR (as used in the SPR of Table 7) (Homo sapiens (Human)) (UniProt P07306); experiment: SPR
[4] = molecular target: Dimeric dg-IgA (Alexa Fluor 594 conjugate, SEC fraction) (human) (UniProt P01876); experiment: cell-based or functional assay
[5] = molecular target: Monomeric dg-IgA (Alexa Fluor 594 conjugate, SEC fraction) (human) (UniProt P01876); experiment: cell-based or functional assay
[6] = molecular target: Tetrameric dg-IgA (Alexa Fluor 594 conjugate, SEC fraction) (human) (UniProt P01876); experiment: cell-based or functional assay
[7] = molecular target: Deglycosylated IgA (dg-IgA) (human) (UniProt P01876); experiment: SPR, dg-IgA amine-coupled to CM5
[8] = molecular target: Deglycosylated IgA (dg-IgA) (human) (UniProt P01876); experiment: SPR (Biacore S200), dg-IgA amine-coupled to CM5 chip, single-cycle, steady-state fit, two replicates

| Binder | Kd [1] | EC50, Assay #1, uptake of A594-labelled cargo by HEK293 (+ASGPR) cells (Total IgA) | EC50, Assay #2, uptake of A594-labelled cargo by HEK293 (+ASGPR) cells (Total IgA) | EC50, Assay #3, uptake of A594-labelled cargo by HEK293 (+ASGPR) cells (Total IgA) | High MFI, Assay #1, uptake of A594-labelled cargo by HEK293 (+ASGPR) cells (Total IgA) | High MFI, Assay #2, uptake of A594-labelled cargo by HEK293 (+ASGPR) cells (Total IgA) | High MFI, Assay #3, uptake of A594-labelled cargo by HEK293 (+ASGPR) cells (Total IgA) | S/N, Assay #2, uptake of A594-labelled cargo by HEK293 (+ASGPR) cells (signal-to-noise ratio) (Total IgA) | EC50, Assay #2, uptake of A594-labelled cargo by HEK293 (+ASGPR) cells [2] | EC50, Assay #3, uptake of A594-labelled cargo by HEK293 (+ASGPR) cells [2] | High MFI, Assay #1, uptake of A594-labelled cargo by HEK293 (+ASGPR) cells [2] | High MFI, Assay #2, uptake of A594-labelled cargo by HEK293 (+ASGPR) cells [2] | High MFI, Assay #3, uptake of A594-labelled cargo by HEK293 (+ASGPR) cells [2] | S/N, Assay #1, uptake of A594-labelled cargo by HEK293 (+ASGPR) cells (signal-to-noise ratio) [2] | S/N, Assay #2, uptake of A594-labelled cargo by HEK293 (+ASGPR) cells (signal-to-noise ratio) [2] | S/N, Assay #3, uptake of A594-labelled cargo by HEK293 (+ASGPR) cells (signal-to-noise ratio) [2] | also measured |
| --- | --- | --- | --- | --- | --- | --- | --- | --- | --- | --- | --- | --- | --- | --- | --- | --- | --- |
| AGN02A (ABT020 conjugated with MAT001) (antibody, human IgG1, kappa, MATE reagent MAT001 (ASGPR binder βGN3) conjugated; site not stated for this agent) heavy: ELQLQESGPGLVKPSQSLSLTCSVTGYSIRSNYWGWIRKFPGNKMEWMGYITYSGGTYYNPSLKSRISITRDTSKNQFFLQLTSVTTEDTATYYCTRWGDWYFDFWGPGTKVTVSP[letters of human IgG1 constant region with changes not shown] light: DVVLTQTPPPLSVAIGQSVSISCKSSQSLVHTDGKTYLHWLLQSPGQSPKLLIYQVSNLGSGVPDRFSGTGSQKDFTLKISRVEAEDLGVYYCVQATHFPLTFGIGTKLELQRTVAAPSVFIFPPSDEQLKSGTASVVCLLNNFYPREAKVQWKVDNALQSGNSQESVTEQDSKDSTYSLSSTLTLSKADYEKHKVYACEVTHQGLSSPVTKSFNRGEC | 0.253 nM | – | – | – | – | – | – | – | – | – | – | – | – | – | – | – | – |
| AGN01H (ABT010 conjugated with MAT008) (antibody, human IgG1, kappa, MATE reagent MAT008 (ASGPR binder TFP1) conjugated; site not stated for this agent) heavy: ELQLQESGPGLVKPSQSLSLTCSVTGYSIRSNYWGWIRKFPGNKMEWMGYITYSGGTYYNPSLKSRISITRDTSKNQFFLQLTSVTTEDTATYYCTRWGDWYFDFWGPGTKVTVSP[letters of human IgG1 constant region not shown] light: DVVLTQTPPPLSVAIGQSVSISCKSSQSLVHTDGKTYLHWLLQSPGQSPKLLIYQVSNLGSGVPDRFSGTGSQKDFTLKISRVEAEDLGVYYCVQATHFPLTFGIGTKLELQRTVAAPSVFIFPPSDEQLKSGTASVVCLLNNFYPREAKVQWKVDNALQSGNSQESVTEQDSKDSTYSLSSTLTLSKADYEKHKVYACEVTHQGLSSPVTKSFNRGEC | 0.282 nM | – | – | – | – | – | – | – | – | – | – | – | – | – | – | – | – |

More lines, in order of falling Kd [1], values ahead:

| Kd [1] | EC50, Assay #1, uptake of A594-labelled cargo by HEK293 (+ASGPR) cells (Total IgA) | EC50, Assay #2, uptake of A594-labelled cargo by HEK293 (+ASGPR) cells (Total IgA) | EC50, Assay #3, uptake of A594-labelled cargo by HEK293 (+ASGPR) cells (Total IgA) | High MFI, Assay #1, uptake of A594-labelled cargo by HEK293 (+ASGPR) cells (Total IgA) | High MFI, Assay #2, uptake of A594-labelled cargo by HEK293 (+ASGPR) cells (Total IgA) | High MFI, Assay #3, uptake of A594-labelled cargo by HEK293 (+ASGPR) cells (Total IgA) | S/N, Assay #2, uptake of A594-labelled cargo by HEK293 (+ASGPR) cells (signal-to-noise ratio) (Total IgA) | EC50, Assay #2, uptake of A594-labelled cargo by HEK293 (+ASGPR) cells [2] | EC50, Assay #3, uptake of A594-labelled cargo by HEK293 (+ASGPR) cells [2] | High MFI, Assay #1, uptake of A594-labelled cargo by HEK293 (+ASGPR) cells [2] | High MFI, Assay #2, uptake of A594-labelled cargo by HEK293 (+ASGPR) cells [2] | High MFI, Assay #3, uptake of A594-labelled cargo by HEK293 (+ASGPR) cells [2] | S/N, Assay #1, uptake of A594-labelled cargo by HEK293 (+ASGPR) cells (signal-to-noise ratio) [2] | S/N, Assay #2, uptake of A594-labelled cargo by HEK293 (+ASGPR) cells (signal-to-noise ratio) [2] | S/N, Assay #3, uptake of A594-labelled cargo by HEK293 (+ASGPR) cells (signal-to-noise ratio) [2] | Binder | also measured |
| --- | --- | --- | --- | --- | --- | --- | --- | --- | --- | --- | --- | --- | --- | --- | --- | --- | --- |
| 0.298 nM | 86.3 nM | 7.39 nM | 20.6 nM | 74.7 MFI | 364 MFI | 2100 MFI | 806 | 1.07 nM | 1.27 nM | 25800 MFI | 72400 MFI | 83500 MFI | 330 | 660 | 911 | AGN01G (ABT010 conjugated with MAT007) (antibody, human IgG1, kappa, MATE reagent MAT007 (ASGPR binder PR3) conjugated; site not stated for this agent) heavy: ELQLQESGPGLVKPSQSLSLTCSVTGYSIRSNYWGWIRKFPGNKMEWMGYITYSGGTYYNPSLKSRISITRDTSKNQFFLQLTSVTTEDTATYYCTRWGDWYFDFWGPGTKVTVSP[letters of human IgG1 constant region not shown] light: DVVLTQTPPPLSVAIGQSVSISCKSSQSLVHTDGKTYLHWLLQSPGQSPKLLIYQVSNLGSGVPDRFSGTGSQKDFTLKISRVEAEDLGVYYCVQATHFPLTFGIGTKLELQRTVAAPSVFIFPPSDEQLKSGTASVVCLLNNFYPREAKVQWKVDNALQSGNSQESVTEQDSKDSTYSLSSTLTLSKADYEKHKVYACEVTHQGLSSPVTKSFNRGEC | Kd [3]: 0.0863 nM |
| 0.234 nM | 55.3 nM | 27.4 nM | 9.87 nM | 83.9 MFI | 91.4 MFI | 132 MFI | 101 | 1.75 nM | 1.38 nM | 6190 MFI | 22800 MFI | 28500 MFI | 72 | 201 | 222 | AGN03A (ABT030 conjugated with MAT001) (antibody, human IgG1, kappa, Linker and ASGPR binder (MAT001, βGN3) attached via a stable amide connection at Lys248 (heavy chain K247 in the linear numbering); BAR = 2 at about 87% ; Chain 1 pos 247 (EU Lys248): Lys carries the linker and the tris-GalNAc ASGPR binder (MAT001, βGN3) through an amide bond, written K. It is on both heavy chains (BAR = 2, about 87%). The letters cannot carry the ligand.) heavy: ELQLQESGPGLVKPSQSLSLTCSVTGYSIRSNYWGWIRKFPGNKMEWMGYITYSGGTYYNPSLKSRISITRDTSKNQFFLQLTSVTTEDTATYYCTRWGDWYFDFWGPGTKVTVSPASTKGPSVFPLAPSSKSTSGGTAALGCLVKDYFPEPVTVSWNSGALTSGVHTFPAVLQSSGLYSLSSVVTVPSSSLGTQTYICNVNHKPSNTKVDKKV[letters of human IgG1 Fc with changes not shown] light: DVVLTQTPPPLSVAIGQSVSISCKSSQSLVHTDGKTYLHWLLQSPGQSPKLLIYQVSNLGSGVPDRFSGTGSQKDFTLKISRVEAEDLGVYYCVQATHFPLTFGIGTKLELQRTVAAPSVFIFPPSDEQLKSGTASVVCLLNNFYPREAKVQWKVDNALQSGNSQESVTEQDSKDSTYSLSSTLTLSKADYEKHKVYACEVTHQGLSSPVTKSFNRGEC | EC50 (nM), endocytosis by HEK293 cells transfected with ASGPR1 [4]: 0.48 nM; High MFI, endocytosis by HEK293 cells transfected with ASGPR1 [4]: 115000 MFI; S/N, endocytosis by HEK293 cells transfected with ASGPR1 (signal-to-noise ratio) [4]: 140; EC50 (nM), endocytosis by HEK293 cells transfected with ASGPR1 [5]: 3.93 nM; High MFI, endocytosis by HEK293 cells transfected with ASGPR1 [5]: 94400 MFI; S/N, endocytosis by HEK293 cells transfected with ASGPR1 (signal-to-noise ratio) [5]: 679; EC50 (nM), endocytosis by HEK293 cells transfected with ASGPR1 [6]: 0.37 nM; High MFI, endocytosis by HEK293 cells transfected with ASGPR1 [6]: 120000 MFI; S/N, endocytosis by HEK293 cells transfected with ASGPR1 (signal-to-noise ratio) [6]: 57.9; EC50, Assay #1, uptake of A594-labelled cargo by HEK293 (+ASGPR) cells [2]: 2.52 nM; Kd [7]: > 100 nM; Kd [8]: 19 nM |

Reference: patent US20250228957A1
